GI50 and TGI data for 79 molecules are collected here from PubChem BioAssay (NCI).

The test system of this test is NCI-H322M lung. Nature of the test: growth of human tumour cells (NCI), 48 h.

Values joined by “and” are separate entries in the source; they are usually repeats but may differ in a detail not shown here. Equal values may be shown once.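 How tested: cells in 96-well plates exposed to compound for 48 hours at five concentrations. GI50 marks 50% less growth. Definition used: TGI = concentration required for complete inhibition of growth.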

As for `O=C1c2cc3c(cc2-c2c1c1cc(F)c(F)cc1c(=O)n2C[C@H](O)CO)OCO3`, the GI50 is 0.19 µM and the TGI is > 100 µM.
Take `COc1ccc(-c2nc(/C=N/Nc3cc(C)nc4ccc(Br)cc34)c(C)o2)cc1`: the GI50 is 1.71 µM and the TGI came to 3.09 µM.
In the case of `O=C(/C(=N/Nc1cn[nH]c(=O)c1Cl)c1ccccc1)c1ccccc1`, the TGI was > 100 µM.
Regarding `Cc1ccc(-c2cc(C(Cl)Cl)on2)cc1`, the GI50 was 34.6 µM and the TGI was > 100 µM.
As for `COC(=O)C1=C(C(=O)OC)N(C(C)C)[C@H]2C(C(=O)OC)=C(C(=O)OC)N(C(C)C)[C@@H]12`, the TGI is > 100 µM.
For the molecule `C1=CC=C2NCCSCCNC3=CC=CC=CC3=NCCSCCN=C2C=C1`, the TGI was > 100 µM.
Still for that read-out and setting: the figure for `CN1C=C(C(N)=O)C2CC(O)[C@@](NC(=O)CS(N)(=O)=O)(C(=O)O)C2C1` (some centres not stated) is 15.4 µM.
Turning to `CCCC(=O)Nc1cn(COC)c(C(=O)N2C[C@H]3C[C@@]34C2=CC(=O)c2[nH]cc(C)c24)n1`, the GI50 is 14.3 µM; the TGI is 32.2 µM and > 100 µM.
Consider `Nc1ccc2c(SCC(=O)Nc3ccccc3-c3ccccc3NC(=O)CSc3c4ccccc4nc4cc(N)ccc34)c3ccccc3nc2c1`, for which the TGI came out at 80.6 µM.
On to `Oc1ccc(C[C@@H]2CN[C@H](Cc3ccc(O)c(Br)c3)CN2)cc1`, for which the TGI was > 100 µM.
Consider `CN1CCN(CCCOc2ccc3ncnc(Nc4ccc(Oc5cccc(F)c5)c(Cl)c4)c3c2)CC1`, for which the GI50 is 1.33 µM and the TGI stood at 2.94 µM.
`CC1(C)Oc2ccccc2N2O[C@@H]3C(=O)N(c4ccccc4)C(=O)[C@@H]3C21c1ccccc1` (some centres not stated): the TGI was found to be 70.8 µM.
As for `O=C1OC(c2ccc(Cl)c3ccccc23)c2ccccc21` (configuration not stated), the TGI is > 100 µM.
As to `Cc1nc2cc(Nc3nc(Nc4ccc(F)cc4)nc(-c4ccc(Cl)cc4)n3)ccc2n1Cc1ccccc1`, the GI50 is > 100 µM and the TGI is > 100 µM.
Turning to `O=C1CCC(CCc2nc3ccccc3[nH]2)(c2ccccc2)C(=O)N1` (configuration not stated), the TGI was > 100 µM.
For `COc1ccc(C(=C2C(=O)OC(=O)C2=C(C)C)c2ccc(OC)cc2)cc1`, the TGI was > 100 µM.
On the same count and under the same terms, the figure for `COc1ccc2c(c1)-c1nc(=S)n(CCN(C)C)c3ccc([N+](=O)[O-])c(c13)N2` is 16.4 µM.
Turning to `COc1ccc2nc3cc(Cl)ccc3c(Nc3ccc(O)c(CN4CCCC4)c3)c2c1`, the GI50 is 3.05 µM and the TGI came to 9.08 µM.
As to `Fc1ccc(OCc2ccc3nc(-c4ccccc4)c(Cl)nc3c2)cc1`, the TGI is > 100 µM.
On the same count and under the same terms, for `Cc1nnc(N=Nc2c(O)[nH]c3ccccc23)[nH]c1=O` the value was > 100 µM; for `CC(=O)N=S(NC(=O)c1ccc(C)cc1)C(Cl)(Cl)Cl` (configuration not stated), > 100 µM.
As for `CCn1c(-c2nonc2N)nc2c(C#CC(C)(C)O)ncc(OC[C@@H]3CCCN3)c21`, the GI50 was 8.67 µM and the TGI is > 25 µM.
As to `O=C(O)Cn1c[n+](NC(=O)Cc2ccccc2)cn1`, the TGI was > 10 µM.
As to `CC12CCC(=O)[C@@]1(C)CCCC2=O` (some centres not stated), the TGI was > 100 µM.
In the case of `C=C(C[N+](C)(C)C)N/N=C/c1oc(-c2ccc(OC)c(OC)c2)c(-c2ccc(OC)c(OC)c2)c1[N+](=O)[O-]`, the TGI came to 68.3 µM.
Regarding `CC(=O)[O-].O=[N+]([O-])c1ccc([O-])c(C=NCCN=Cc2cc([N+](=O)[O-])ccc2[O-])c1.[Mn+3]`, the GI50 is > 100 µM and the TGI is > 100 µM.
For `c1cc2ccc1C1NCCCN1CCN1CCCNC1c1ccc(cc1)C1NCCCN1CCN1CCCNC21` (configuration not stated), the TGI is > 100 µM.
On the same count and under the same terms, the figure for `Brc1ccc(/C(N=N/C(=N\Sc2ccccc2)c2ccc(Br)cc2)=N/Sc2ccccc2)cc1` is > 100 µM; for `CC1CCc2sc3[nH]c(=S)n(C)c(=O)c3c2C1` (configuration not stated) it is > 100 µM.
On to `COc1ccc2c(c1)c(-c1cc(-c3cn(C)c4ccc(OC)cc34)[nH]n1)cn2C`, for which the GI50 was > 100 µM and the TGI was > 100 µM.
Take `COc1ccc(CCn2ccc(=O)c(O)c2C)cc1OC`: the TGI was > 100 µM.
On the same count and under the same terms, the figure for `O=C(/C=C/CC(O)(c1ccccc1)c1ccccc1)Nc1ccccc1Cl` is > 100 µM.
For the molecule `C=C1c2ccccc2N(S(=O)(=O)c2ccc(C)cc2)C12CCCCC2`, the TGI is > 100 µM.
`O=C(CCl)Nc1ccc(C(=O)N/N=C/c2ccc(Cl)cc2)cc1`: the GI50 was 2.55 µM; the TGI is 7.7 µM and 25.4 µM.
On to `Cc1ccc(NCCNCC(O)CO)c2c(=O)c3ccccc3sc12` (configuration not stated), for which the GI50 was 1.68 µM and the TGI is 3.43 µM.
Take `CC(C)(C)C#CI1OC(=O)c2ccccc21`: the TGI turned out to be 26.2 µM.
For the molecule `CCC(C)C(NC(=O)C(CCCC[N+](=N)N)NC(=O)C(CCCC[N+](=N)N)NC(=O)c1ccc(OC)cc1)C(=O)NC(CCCC[N+](=N)N)C(=O)N1CCCC1C(=O)NC(CCCCN)C(=O)NC(CC(C)C)C(N)=O` (configuration not stated), the TGI is > 100 µM.
In the case of `COc1ccc(-c2conc2-c2ccccc2)cc1`, the GI50 is 0.597 µM and the TGI was > 100 µM.
Consider `Cc1cccc2c(N)c3cccc(C(=O)NCC[N+](C)(C)[O-])c3nc12`, for which the TGI was 63.9 µM.
On to `CCOC(=O)OC1(c2ccccc2)CCN(C)CC1`, for which the TGI is > 100 µM.
The same measure, in the same setting: for `C/C(=C\CO)CC[C@@H]1[C@@]2(C)CCCC(C)(C)[C@@H]2CC[C@@]1(C)O` the value was > 100 µM; for `O=C(O[C@@H](/C=C/c1ccccc1)P1(=O)N(Cc2ccccc2)[C@@H]2CCCC[C@H]2N1Cc1ccccc1)c1ccccc1`, > 100 µM.
`C#CCn1cc(C=C2C(=O)NC(=S)NC2=O)c2cc(Cl)ccc21`: the GI50 is 1.99 µM and the TGI came to 4.58 µM.
`O=C(Nc1nc2ccc(F)cc2s1)c1cccnc1Nc1ccc(Cl)cc1Cl`: the GI50 was 3.35 µM and the TGI was determined as 19.6 µM.
For `Cc1nc2ccccc2n1Cc1ccc(NC(=S)Nc2ccccc2)cc1`, the TGI was > 100 µM.
On to `Oc1cccc(-c2nc(N3CCOCC3)c3oc4ncccc4c3n2)c1`, for which the GI50 is 0.183 µM and 0.208 µM; the TGI is 1.66 µM and 3.26 µM.
In the case of `N#CC1=C(N)Oc2c(sc3c(Br)cccc23)C1c1ccc(F)cc1` (configuration not stated), the GI50 is 0.7 µM and the TGI stood at 27.7 µM.
The like results for `COc1ccccc1-c1nccc(COc2ccccc2C[C@@H](Oc2ncnc3sc(-c4ccc(F)cc4)c(-c4ccc(OCCN5CCN(C)CC5)c(Cl)c4C)c23)C(=O)O)n1` were, in that order, 1.78 µM and 3.7 µM.
Turning to `Cn1c2ccccc2c2c3c(=O)[nH][nH]c(=O)c3c3c4ccccc4n(C)c3c21`, the TGI is > 100 µM.
On the same count and under the same terms, for `O=c1ncccn1C1OC(CO)C(O)C1F` (configuration not stated) the value was > 100 µM.
`C=C1C(=O)C23CC1CCC2C12CO[C@@]3(O)[C@@H](O)C1C(C)(C)C=CC2=O` (some centres not stated): the GI50 was 10.3 µM; the TGI was 9.94 µM and 22 µM.
Regarding `COc1cc(-c2nn3c(=O)n(-c4ccc(Cl)cc4)c(=O)nc3s2)cc(OC)c1OC`, the TGI is > 100 µM.
As for `COc1cccc(C2CC(=O)Nc3cc4c(cc32)CCC4)c1OC` (configuration not stated), the GI50 was 6.71 µM and the TGI is > 100 µM.
On to `O=C(O)C(CS)N=Cc1nc(-c2ccccc2)oc1O` (configuration not stated), for which the TGI was > 100 µM.
As to `CC(C)(C)OC(=O)n1c(Cl)c(C(=O)N=C=S)c2ccccc21`, the GI50 was 22.4 µM and the TGI is > 100 µM.
The like results for `COc1ccc(CNC(=O)c2ccc(-c3cc(-c4nnc(C)o4)ccc3C)cc2)cc1` were, in that order, > 25 µM and > 25 µM.
Take `CCOc1ccccc1NC(=O)CCC(=O)NN`: the TGI is > 100 µM.
`O=C(NCCCn1ccnc1[N+](=O)[O-])C(=O)NCCCn1ccnc1[N+](=O)[O-]`: the TGI is > 100 µM.
In the case of `CCOC(=O)C(=Cc1c(-c2ccccc2)[nH]c2ccccc12)C(=O)OCC`, the GI50 was 12.7 µM and the TGI amounted to 54.1 µM.
`CCCCOP1(=O)C=CC(Cl)=C(C)C1` (configuration not stated): the TGI is > 100 µM.
Molecule `O=C1C=CC(=O)c2c(O)c(N3CCN(c4ncccn4)CC3)c(Cl)c(O)c21` had a TGI of 10.8 µM.
On the same count and under the same terms, the figure for `C=CCN(c1cc(OC)c2[nH]c(C(=O)O)c(C)c2c1[N+](=O)[O-])S(C)(=O)=O` is > 100 µM.
`COC12C=C/C(=C(/C(=O)OCc3csc(SC)n3)C(=O)CCCCCCCCC3(OC)C=C/C(=C(/C(=O)OCc4cnc(SC)s4)C(=O)CCCCCCCC1)O3)O2` (configuration not stated): the GI50 is 8.52 µM and the TGI was > 100 µM.
Turning to `CC12O[Te]34OC1(C)C(C)(O3)C2(C)O4`, the TGI is 25.4 µM.
On to `CC(=O)Nc1ccc2c(c1)CN1C(=O)c3ccccc3C1=N2`, for which the GI50 is > 100 µM and the TGI was > 100 µM.
Take `O=C1[C@H]2ON(c3ccccc3)C(c3cccc([N+](=O)[O-])c3)[C@H]2C(=O)N1c1ccc(Cc2ccc(N3C(=O)[C@@H]4ON(c5ccccc5)C(c5cccc([N+](=O)[O-])c5)[C@@H]4C3=O)cc2)cc1` (some centres not stated): the TGI is > 100 µM.
Same read-out and setting: for `COc1cc2c3cc1Oc1cc(ccc1O)C[C@@H]1c4c(cc(OC)c(O)c4Oc4ccc(cc4)C[C@@H]3[N+](C)(C)CC2)CC[N+]1(C)C` the value was > 100 µM.
Turning to `NC1(C(=O)O)CSSC1`, the GI50 was 17.9 µM and the TGI was determined as 96.3 µM.
In the case of `CCOP(=O)(CC1OC(CO)C(O)C1O)OCC` (configuration not stated), the TGI was > 100 µM.
Same read-out and setting: for `O=C(O)C12C3C4(C(=O)O)C1C1(C(=O)O)C2C3(C(=O)O)C41` (configuration not stated) the value was > 100 µM; for `O=C1CN(c2ccccc2)C(=O)C1C(=O)Nc1ccc(Cl)c(Cl)c1` (configuration not stated), 16.4 µM.
In the case of `Cc1ccc(S(=O)c2ccc([N+](=O)[O-])c3nonc23)cc1` (configuration not stated), the GI50 was 15.4 µM and the TGI is 29.3 µM.
As to `C[C@@H](CCO)OC1OC(COC(=O)C(C)(C)C)C(OC(=O)C(C)(C)C)C(OC(=O)C(C)(C)C)C1OC(=O)C(C)(C)C` (some centres not stated), the TGI was > 100 µM.
Take `Cc1cc2c(-c3nc4ccccn4c3NC34CC5CC(CC(C5)C3)C4)c(O)c(O)cc2c(O)c1-c1c(C)cc2c(-c3nc4ccccn4c3NC34CC5CC(CC(C5)C3)C4)c(O)c(O)cc2c1O`: the GI50 was 0.928 µM and the TGI was > 25 µM.
Take `CN(C)CN1C(=O)/C(=N\n2c(-c3ccncc3)n[nH]c2=S)c2ccccc21`: the TGI is > 100 µM.
As to `CC(=O)OC1COC(N2c3ccccc3[C@@H]3CCc4c([nH]c5ccccc45)[C@@H]32)C(OC(C)=O)C1OC(C)=O` (mixture of isomers), the TGI was > 100 µM.
The same measure, in the same setting: for `CCc1nc2c([nH]1)C(=O)c1ccccc1C2=O` the value was > 100 µM; for `CC(=O)Nc1ccc2c(c1)nc1c3ccccc3ccn21`, > 100 µM.
On the same count and under the same terms, the figure for `Cc1cc(C)c2nccc(NCCCN(C)C)c2c1[N+](=O)[O-]` is > 100 µM.
